Source: the supplement of paper PMC11125491
± gives the standard deviation of the averaged measurements. Growth of baker's yeast expressing single-residue variants of Pneumocystis jirovecii dihydrofolate reductase in 8.8 or 44 µM methotrexate (about 75% and 90% inhibition of the wild type). Selection coefficient per generation; 0 = like wild type, above 0 = less sensitive, below 0 = more sensitive or loss of function. No active / inactive call per row; the paper calls resistant above 0.220 (8.8 µM) or 0.243 (44 µM) together with a significance test. At 44 µM about 15% of codons end with one read or none, so the lowest values are floors (replicate rank correlation 0.74; 0.94 at 8.8 µM).

B1: UniProt A0EPZ9; numbered along this chain (parent)
chain: MDWQKSLTLIVALTLSRGIGLKNDLPWKLKSDMMFFSRVTSGLLVTRSTGQMNVVLMGRKTWESLPAHSRPLKNRINVVISRQEVLDLGGGAYHARSLDDALALLSQIYDSTSKIQLNRVFVIGGGELCKAAMEHSRLNRIIATVIHNEVDCDVFFPIDFRSSQSCLPWRKQDHSVLEAWVGSKVPQGKINENGFIYEFEMWIRDI

Variants of: B1
Assay: selection coefficient against synonymous wild-type codons (log2 per generation); higher = faster growth than wild type
Details: with Saccharomyces cerevisiae carrying the variant on a plasmid
Protocol: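 Pooled growth of yeast carrying single-residue variants of P. jirovecii dihydrofolate reductase (own DFR1 gene intact), two passages at 30 °C, three cultures, sequenced before and after. Codons with under 15 starting reads are left out; codons of one change are averaged.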

Row | Variant | selection coefficient against synonymous wild-type codons (log2) (methotrexate 8.8 µM) | selection coefficient against synonymous wild-type codons (log2) (methotrexate 44 µM)
1 | D100A | -0.227 ± 0.083 | -0.263 ± 0.081
2 | D100C | -0.455 ± 0.033 | -0.286 ± 0.13
3 | D100E | -0.0429 ± 0.028 | -0.118 ± 0.14
4 | D100F | -0.712 ± 0.041 | -0.209 ± 0.046
5 | D100G | -0.226 ± 0.035 | -0.274 ± 0.057
6 | D100H | -0.0717 ± 0.085 | 0.0484 ± 0.093
7 | D100I | -0.7093 ± 0.0023 | -0.206 ± 0.075
8 | D100K | -0.339 ± 0.055 | -0.212 ± 0.042
9 | D100L | -0.59 ± 0.12 | -0.226 ± 0.17
10 | D100M | -0.403 ± 0.024 | -0.207 ± 0.19
11 | D100N | -0.263 ± 0.024 | -0.096 ± 0.026
12 | D100P | -0.565 ± 0.12 | -0.107 ± 0.11
13 | D100Q | -0.255 ± 0.063 | -0.321 ± 0.06
14 | D100R | -0.682 ± 0.15 | -0.329 ± 0.059
15 | D100S | -0.341 ± 0.096 | -0.241 ± 0.085
16 | D100T | -0.343 ± 0.14 | -0.0781 ± 0.17
17 | D100V | -0.525 ± 0.2 | -0.274 ± 0.095
18 | D100W | -0.754 ± 0.12 | -0.318 ± 0.093
19 | D100Y | -0.418 ± 0.086 | 0.0502 ± 0.53
20 | A101C | -0.662 ± 0.058 | -0.332 ± 0.052
21 | A101D | -0.411 ± 0.37 | -0.0784 ± 0.22
22 | A101E | -0.687 ± 0.14 | -0.327 ± 0.024
23 | A101F | -0.544 ± 0.12 | -0.328 ± 0.022
24 | A101G | -0.381 ± 0.075 | -0.334 ± 0.13

Row | Variant | selection coefficient against synonymous wild-type codons (log2) (methotrexate 8.8 µM) | selection coefficient against synonymous wild-type codons (log2) (methotrexate 44 µM)
25 | A101H | -0.592 ± 0.034 | -0.0902 ± 0.044
26 | A101I | -0.612 ± 0.11 | -0.197 ± 0.036
27 | A101K | -0.715 ± 0.052 | -0.255 ± 0.04
28 | A101L | -0.842 ± 0.076 | -0.375 ± 0.086
29 | A101M | -0.824 ± 0.16 | -0.431 ± 0.039
30 | A101N | -0.584 ± 0.054 | -0.0824 ± 0.024
31 | A101P | -0.619 ± 0.1 | -0.16 ± 0.046
32 | A101Q | -0.738 ± 0.032 | -0.234 ± 0.044
33 | A101R | -0.786 ± 0.033 | -0.281 ± 0.041
34 | A101S | -0.545 ± 0.13 | -0.212 ± 0.17
35 | A101T | -0.372 ± 0.39 | -0.0304 ± 0.22
36 | A101V | -0.493 ± 0.36 | -0.181 ± 0.27
37 | A101W | -0.827 ± 0.088 | -0.409 ± 0.071
38 | A101Y | -0.685 ± 0.064 | -0.182 ± 0.013
39 | L102A | -0.651 ± 0.13 | -0.192 ± 0.15
40 | L102C | -0.624 ± 0.1 | -0.386 ± 0.056
41 | L102D | -0.637 ± 0.12 | -0.246 ± 0.062
42 | L102E | -0.709 ± 0.19 | -0.291 ± 0.027
43 | L102F | 0.252 ± 0.02 | 0.372 ± 0.014
44 | L102G | -0.714 ± 0.078 | -0.316 ± 0.098
45 | L102H | -0.629 ± 0.14 | -0.196 ± 0.041
46 | L102I | -0.101 ± 0.012 | -0.236 ± 0.13
47 | L102K | -0.602 ± 0.099 | -0.229 ± 0.039
48 | L102M | -0.0864 ± 0.019 | -0.116 ± 0.038

Row | Variant | selection coefficient against synonymous wild-type codons (log2) (methotrexate 8.8 µM) | selection coefficient against synonymous wild-type codons (log2) (methotrexate 44 µM)
49 | L102P | -0.668 ± 0.046 | -0.165 ± 0.04
50 | L102R | -0.64 ± 0.15 | -0.251 ± 0.091
51 | L102S | -0.749 ± 0.072 | -0.231 ± 0.11
52 | L102T | -0.69 ± 0.16 | -0.208 ± 0.13
53 | L102V | -0.353 ± 0.14 | -0.137 ± 0.4
54 | L102W | -0.103 ± 0.042 | -0.023 ± 0.17
55 | L102Y | -0.0433 ± 0.0073 | -0.0507 ± 0.081
56 | A103C | -0.182 ± 0.041 | -0.112 ± 0.074
57 | A103D | 0.0726 ± 0.013 | 0.2 ± 0.022
58 | A103E | 0.0546 ± 0.031 | 0.0919 ± 0.095
59 | A103F | -0.193 ± 0.052 | -0.254 ± 0.05
60 | A103G | -0.139 ± 0.033 | -0.135 ± 0.094
61 | A103H | 0.0066 ± 0.036 | 0.0688 ± 0.065
62 | A103I | -0.0935 ± 0.03 | -0.0128 ± 0.11
63 | A103K | 0.0305 ± 0.0081 | 0.0566 ± 0.012
64 | A103L | -0.106 ± 0.045 | -0.035 ± 0.1
65 | A103M | -0.069 ± 0.049 | -0.0575 ± 0.21
66 | A103N | 0.0628 ± 0.059 | 0.0952 ± 0.11
67 | A103P | -0.51 ± 0.2 | -0.137 ± 0.18
68 | A103Q | 0.0654 ± 0.022 | 0.058 ± 0.025
69 | A103R | -0.00984 ± 0.026 | 0.0621 ± 0.083
70 | A103S | -0.0219 ± 0.091 | -0.0431 ± 0.14
71 | A103T | 0.00132 ± 0.029 | 0.032 ± 0.062
72 | A103V | -0.0805 ± 0.032 | -0.0593 ± 0.19

Row | Variant | selection coefficient against synonymous wild-type codons (log2) (methotrexate 8.8 µM) | selection coefficient against synonymous wild-type codons (log2) (methotrexate 44 µM)
73 | A103W | -0.432 ± 0.08 | -0.173 ± 0.093
74 | A103Y | -0.178 ± 0.028 | -0.148 ± 0.08
75 | L104A | -0.449 ± 0.12 | -0.0549 ± 0.37
76 | L104C | -0.486 ± 0.088 | -0.323 ± 0.051
77 | L104D | -0.632 ± 0.1 | -0.266 ± 0.05
78 | L104E | -0.581 ± 0.047 | -0.273 ± 0.11
79 | L104F | -0.319 ± 0.061 | -0.147 ± 0.18
80 | L104G | -0.593 ± 0.068 | -0.21 ± 0.081
81 | L104H | -0.53 ± 0.13 | -0.167 ± 0.055
82 | L104I | -0.182 ± 0.039 | -0.171 ± 0.14
83 | L104K | -0.13 ± 0.031 | -0.191 ± 0.16
84 | L104M | -0.0555 ± 0.031 | -0.0176 ± 0.03
85 | L104P | -0.554 ± 0.083 | -0.0529 ± 0.069
86 | L104Q | -0.338 ± 0.11 | -0.253 ± 0.036
87 | L104R | -0.351 ± 0.07 | -0.137 ± 0.3
88 | L104S | -0.397 ± 0.16 | -0.166 ± 0.13
89 | L104T | -0.399 ± 0.0046 | -0.234 ± 0.12
90 | L104V | -0.33 ± 0.069 | -0.27 ± 0.14
91 | L104W | -0.311 ± 0.089 | -0.192 ± 0.14
92 | L104Y | -0.304 ± 0.11 | -0.252 ± 0.12
93 | L105A | -0.267 ± 0.095 | -0.239 ± 0.14
94 | L105C | -0.226 ± 0.061 | -0.257 ± 0.039
95 | L105D | -0.578 ± 0.047 | -0.12 ± 0.064
96 | L105E | -0.834 ± 0.051 | -0.329 ± 0.027

Row | Variant | selection coefficient against synonymous wild-type codons (log2) (methotrexate 8.8 µM) | selection coefficient against synonymous wild-type codons (log2) (methotrexate 44 µM)
97 | L105F | -0.512 ± 0.1 | -0.166 ± 0.031
98 | L105G | -0.618 ± 0.2 | -0.287 ± 0.11
99 | L105K | -0.759 ± 0.018 | -0.187 ± 0.11
100 | L105M | -0.313 ± 0.042 | -0.294 ± 0.14
101 | L105P | -0.519 ± 0.19 | -0.103 ± 0.042
102 | L105Q | -0.666 ± 0.096 | -0.232 ± 0.045
103 | L105R | -0.667 ± 0.18 | -0.213 ± 0.17
104 | L105S | -0.452 ± 0.18 | -0.214 ± 0.08
105 | L105T | -0.433 ± 0.12 | -0.309 ± 0.072
106 | L105V | -0.0336 ± 0.075 | -0.0226 ± 0.057
107 | L105W | -0.709 ± 0.17 | -0.405 ± 0.04
108 | L105Y | -0.525 ± 0.048 | -0.0234 ± 0.064
109 | S106A | 0.0354 ± 0.058 | 0.0838 ± 0.14
110 | S106C | -0.132 ± 0.025 | -0.112 ± 0.09
111 | S106D | 0.0724 ± 0.039 | 0.0673 ± 0.1
112 | S106E | 0.0927 ± 0.036 | 0.0905 ± 0.11
113 | S106F | -0.151 ± 0.13 | -0.0745 ± 0.21
114 | S106G | 0.0409 ± 0.07 | 0.547 ± 0.48
115 | S106I | -0.492 ± 0.094 | -0.186 ± 0.17
116 | S106K | 0.0761 ± 0.011 | 0.064 ± 0.015
